# Laboratory results: paper PMC12820563
# Some of the results follow. The list includes weakly bound sequences.
# Target: T1, MBP-FoxP3dN (UniProt Q99JB6)
# T1 sequence: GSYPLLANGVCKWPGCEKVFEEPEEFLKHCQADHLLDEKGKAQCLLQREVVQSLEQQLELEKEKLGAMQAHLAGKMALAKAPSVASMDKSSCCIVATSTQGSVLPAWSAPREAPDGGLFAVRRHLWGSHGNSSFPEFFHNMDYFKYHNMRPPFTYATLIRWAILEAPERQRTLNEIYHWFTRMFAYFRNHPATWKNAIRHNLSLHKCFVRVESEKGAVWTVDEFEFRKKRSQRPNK
# Test: PD-seq (MBP pull-down with sequencing)
# Conditions: 20 mM Tris-HCl pH 7.5, 100 mM NaCl, 1.5 mM MgCl2, 0.4 uM protein, 0.1 uM dsDNA library, 30 min, room temperature, amylose pull-down; high values mean tight binding; double strand, one strand shown
row,Sequence,binding signal (RPM ratio (pull-down/input))
1,GATGATTGTTCTCCCAGCTGATGAATTTAAGAAATCGAGTAAACAAATTTTCCTAATCTTTCTGTTCAAGCGCCATCTAC,0.267
2,GATGATTGTTCTCCCAGCTGATGAATTATCCAGATCGAGTAAACAAATTTTCCTAATCTTTCTGTTCAAGCGCCATCTAC,0.189
3,GATGATTGTTCTCCCAGCTGATGAATTAGCGTCGTCGAGTAAACAAATTTTCCTAATCTTTCTGTTCAAGCGCCATCTAC,1.08
4,GATGATTGTTCTCCCAGCTGATGAATTGCGATGATCGAGTAAACAAATTTTCCTAATCTTTCTGTTCAAGCGCCATCTAC,1.1
5,GATGATTGTTCTCCCAGCTGATGAATTTTCGTGCTCGAGTAAACAAATTTTCCTAATCTTTCTGTTCAAGCGCCATCTAC,0.342
6,GATGATTGTTCTCCCAGCTGATGAATTTTGAGGTTCGAGTAAACAAATTTTCCTAATCTTTCTGTTCAAGCGCCATCTAC,0.596
7,GATGATTGTTCTCCCAGCTGATGAATTCCGTTTTTCGAGTAAACAAATTTTCCTAATCTTTCTGTTCAAGCGCCATCTAC,1.38
8,GATGATTGTTCTCCCAGCTGATGAATTAGAATGATCGAGTAAACAAATTTTCCTAATCTTTCTGTTCAAGCGCCATCTAC,0.319
9,GATGATTGTTCTCCCAGCTGATGAATTATCACTCTCGAGTAAACAAATTTTCCTAATCTTTCTGTTCAAGCGCCATCTAC,0.476
10,GATGATTGTTCTCCCAGCTGATGAATTCGCTTTGTCGAGTAAACAAATTTTCCTAATCTTTCTGTTCAAGCGCCATCTAC,1.88
11,GATGATTGTTCTCCCAGCTGATGAATTGGTATCGTCGAGTAAACAAATTTTCCTAATCTTTCTGTTCAAGCGCCATCTAC,1.23
12,GATGATTGTTCTCCCAGCTGATGAATTTACACCGTCGAGTAAACAAATTTTCCTAATCTTTCTGTTCAAGCGCCATCTAC,0.505
13,GATGATTGTTCTCCCAGCTGATGAATTCAGAATTTCGAGTAAACAAATTTTCCTAATCTTTCTGTTCAAGCGCCATCTAC,1
14,GATGATTGTTCTCCCAGCTGATGAATTCTGGCGCTCGAGTAAACAAATTTTCCTAATCTTTCTGTTCAAGCGCCATCTAC,0.343
15,GATGATTGTTCTCCCAGCTGATGAATTTTCGTAGTCGAGTAAACAAATTTTCCTAATCTTTCTGTTCAAGCGCCATCTAC,0.337
16,GATGATTGTTCTCCCAGCTGATGAATTTGCAATTTCGAGTAAACAAATTTTCCTAATCTTTCTGTTCAAGCGCCATCTAC,2.77
17,GATGATTGTTCTCCCAGCTGATGAATTTATACCCTCGAGTAAACAAATTTTCCTAATCTTTCTGTTCAAGCGCCATCTAC,0.857
18,GATGATTGTTCTCCCAGCTGATGAATTGCCGAACTCGAGTAAACAAATTTTCCTAATCTTTCTGTTCAAGCGCCATCTAC,0.417
19,GATGATTGTTCTCCCAGCTGATGAATTTGGCCTATCGAGTAAACAAATTTTCCTAATCTTTCTGTTCAAGCGCCATCTAC,1.94
20,GATGATTGTTCTCCCAGCTGATGAATTCATGACTTCGAGTAAACAAATTTTCCTAATCTTTCTGTTCAAGCGCCATCTAC,0.5
21,GATGATTGTTCTCCCAGCTGATGAATTCGAGTGTTCGAGTAAACAAATTTTCCTAATCTTTCTGTTCAAGCGCCATCTAC,0.858

row,Sequence,binding signal (RPM ratio (pull-down/input))
1,GATGATTGTTCTCCCAGCTGATGAATTAATAGTATCGAGTAAACAAATTTTCCTAATCTTTCTGTTCAAGCGCCATCTAC,0.837
2,GATGATTGTTCTCCCAGCTGATGAATTCACTGAATCGAGTAAACAAATTTTCCTAATCTTTCTGTTCAAGCGCCATCTAC,0.203
3,GATGATTGTTCTCCCAGCTGATGAATTCTAAGAGTCGAGTAAACAAATTTTCCTAATCTTTCTGTTCAAGCGCCATCTAC,0.245
4,GATGATTGTTCTCCCAGCTGATGAATTGTCGCGTTCGAGTAAACAAATTTTCCTAATCTTTCTGTTCAAGCGCCATCTAC,1.52
5,GATGATTGTTCTCCCAGCTGATGAATTAGCATACTCGAGTAAACAAATTTTCCTAATCTTTCTGTTCAAGCGCCATCTAC,1.31
6,GATGATTGTTCTCCCAGCTGATGAATTCTGAGCTTCGAGTAAACAAATTTTCCTAATCTTTCTGTTCAAGCGCCATCTAC,0.317
7,GATGATTGTTCTCCCAGCTGATGAATTGATATTCTCGAGTAAACAAATTTTCCTAATCTTTCTGTTCAAGCGCCATCTAC,0.89
8,GATGATTGTTCTCCCAGCTGATGAATTATAGATATCGAGTAAACAAATTTTCCTAATCTTTCTGTTCAAGCGCCATCTAC,0.499
9,GATGATTGTTCTCCCAGCTGATGAATTCGGACCATCGAGTAAACAAATTTTCCTAATCTTTCTGTTCAAGCGCCATCTAC,0.399
10,GATGATTGTTCTCCCAGCTGATGAATTCCGCTACTCGAGTAAACAAATTTTCCTAATCTTTCTGTTCAAGCGCCATCTAC,2.1
11,GATGATTGTTCTCCCAGCTGATGAATTATAGCTTTCGAGTAAACAAATTTTCCTAATCTTTCTGTTCAAGCGCCATCTAC,1.01
12,GATGATTGTTCTCCCAGCTGATGAATTGCGTAAGTCGAGTAAACAAATTTTCCTAATCTTTCTGTTCAAGCGCCATCTAC,0.656
13,GATGATTGTTCTCCCAGCTGATGAATTTCCGGATTCGAGTAAACAAATTTTCCTAATCTTTCTGTTCAAGCGCCATCTAC,0.227
14,GATGATTGTTCTCCCAGCTGATGAATTCGGGTCTTCGAGTAAACAAATTTTCCTAATCTTTCTGTTCAAGCGCCATCTAC,0.583
15,GATGATTGTTCTCCCAGCTGATGAATTCTAACGCTCGAGTAAACAAATTTTCCTAATCTTTCTGTTCAAGCGCCATCTAC,0.376
16,GATGATTGTTCTCCCAGCTGATGAATTGTCAATATCGAGTAAACAAATTTTCCTAATCTTTCTGTTCAAGCGCCATCTAC,1.57
17,GATGATTGTTCTCCCAGCTGATGAATTAGCTTCCTCGAGTAAACAAATTTTCCTAATCTTTCTGTTCAAGCGCCATCTAC,0.864
18,GATGATTGTTCTCCCAGCTGATGAATTATCACTTTCGAGTAAACAAATTTTCCTAATCTTTCTGTTCAAGCGCCATCTAC,0.47
19,GATGATTGTTCTCCCAGCTGATGAATTTATCTAGTCGAGTAAACAAATTTTCCTAATCTTTCTGTTCAAGCGCCATCTAC,0.605
20,GATGATTGTTCTCCCAGCTGATGAATTATCTACTTCGAGTAAACAAATTTTCCTAATCTTTCTGTTCAAGCGCCATCTAC,0.366
21,GATGATTGTTCTCCCAGCTGATGAATTACATATTTCGAGTAAACAAATTTTCCTAATCTTTCTGTTCAAGCGCCATCTAC,0.642

row,Sequence,binding signal (RPM ratio (pull-down/input))
1,GATGATTGTTCTCCCAGCTGATGAATTATAAATTTCGAGTAAACAAATTTTCCTAATCTTTCTGTTCAAGCGCCATCTAC,0.351
2,GATGATTGTTCTCCCAGCTGATGAATTTCAACTGTCGAGTAAACAAATTTTCCTAATCTTTCTGTTCAAGCGCCATCTAC,0.377
3,GATGATTGTTCTCCCAGCTGATGAATTGCGCAATTCGAGTAAACAAATTTTCCTAATCTTTCTGTTCAAGCGCCATCTAC,5.72
4,GATGATTGTTCTCCCAGCTGATGAATTTTTTCAATCGAGTAAACAAATTTTCCTAATCTTTCTGTTCAAGCGCCATCTAC,0.247
5,GATGATTGTTCTCCCAGCTGATGAATTGAAGATGTCGAGTAAACAAATTTTCCTAATCTTTCTGTTCAAGCGCCATCTAC,0.334
6,GATGATTGTTCTCCCAGCTGATGAATTAAGATCTTCGAGTAAACAAATTTTCCTAATCTTTCTGTTCAAGCGCCATCTAC,0.292
7,GATGATTGTTCTCCCAGCTGATGAATTCATGCGTTCGAGTAAACAAATTTTCCTAATCTTTCTGTTCAAGCGCCATCTAC,1.68
8,GATGATTGTTCTCCCAGCTGATGAATTGCTACCGTCGAGTAAACAAATTTTCCTAATCTTTCTGTTCAAGCGCCATCTAC,0.615
9,GATGATTGTTCTCCCAGCTGATGAATTATGGCTTTCGAGTAAACAAATTTTCCTAATCTTTCTGTTCAAGCGCCATCTAC,1.21
10,GATGATTGTTCTCCCAGCTGATGAATTTTACTCATCGAGTAAACAAATTTTCCTAATCTTTCTGTTCAAGCGCCATCTAC,0.402
11,GATGATTGTTCTCCCAGCTGATGAATTCGTTCACTCGAGTAAACAAATTTTCCTAATCTTTCTGTTCAAGCGCCATCTAC,0.463
12,GATGATTGTTCTCCCAGCTGATGAATTAATATGCTCGAGTAAACAAATTTTCCTAATCTTTCTGTTCAAGCGCCATCTAC,1.06
13,GATGATTGTTCTCCCAGCTGATGAATTAAGCCCATCGAGTAAACAAATTTTCCTAATCTTTCTGTTCAAGCGCCATCTAC,1.01
14,GATGATTGTTCTCCCAGCTGATGAATTACCCACCTCGAGTAAACAAATTTTCCTAATCTTTCTGTTCAAGCGCCATCTAC,0.278
15,GATGATTGTTCTCCCAGCTGATGAATTCGTGACGTCGAGTAAACAAATTTTCCTAATCTTTCTGTTCAAGCGCCATCTAC,0.455
16,GATGATTGTTCTCCCAGCTGATGAATTGGTCGTGTCGAGTAAACAAATTTTCCTAATCTTTCTGTTCAAGCGCCATCTAC,0.88
17,GATGATTGTTCTCCCAGCTGATGAATTTTTTCCATCGAGTAAACAAATTTTCCTAATCTTTCTGTTCAAGCGCCATCTAC,0.239
18,GATGATTGTTCTCCCAGCTGATGAATTTGTACTTTCGAGTAAACAAATTTTCCTAATCTTTCTGTTCAAGCGCCATCTAC,1.75
19,GATGATTGTTCTCCCAGCTGATGAATTCATTATGTCGAGTAAACAAATTTTCCTAATCTTTCTGTTCAAGCGCCATCTAC,1.36
20,GATGATTGTTCTCCCAGCTGATGAATTGGGTCTTTCGAGTAAACAAATTTTCCTAATCTTTCTGTTCAAGCGCCATCTAC,0.418
21,GATGATTGTTCTCCCAGCTGATGAATTGGGACAGTCGAGTAAACAAATTTTCCTAATCTTTCTGTTCAAGCGCCATCTAC,0.363
